# The other results are listed elsewhere or left out.
# Target: T1, OsWOX13 (Oryza sativa, UniProt Q5QMM3 1-267)
# T1 sequence: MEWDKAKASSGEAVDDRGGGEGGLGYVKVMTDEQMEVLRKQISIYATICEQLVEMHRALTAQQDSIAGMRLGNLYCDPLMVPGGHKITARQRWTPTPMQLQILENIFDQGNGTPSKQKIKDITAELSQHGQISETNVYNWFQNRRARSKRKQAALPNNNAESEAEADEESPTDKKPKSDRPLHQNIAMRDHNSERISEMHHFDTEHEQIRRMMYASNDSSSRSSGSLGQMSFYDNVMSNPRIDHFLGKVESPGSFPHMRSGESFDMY
# Experiment: protein-binding microarray (RPBM); PBS, 2% BSA, 51.3 ng/ul salmon testes DNA, 50 uM zinc acetate, 200 nM TF, 25 C, 1 h; high values mean tight binding
# Conditions: protein: recombinant; tags: N-terminal polyhistidine and DsRed monomer fusion (pET32a); label: CyDye5-dUTP incorporated in the synthesized complementary strand; 3' TTTTT single-stranded linker to array surface; dsDNA, one strand shown
# Summary of the method: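 An Axon 4000B scanner gave the binding signal as per-feature fluorescence intensity in arbitrary units. This followed washing of a custom Agilent array that had been incubated for 1 h at 25 °C with 200 nM protein in PBS, 2% BSA, salmon testes DNA and 50 µM zinc acetate. The proteins were transcription factors fused at the N-terminus to polyhistidine and DsRed, expressed in E. coli BL21-CodonPlus and purified on Ni–NTA.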
row,Sequence,binding signal
1,CGAGTTATCTATTAATTTGACATATTAATATGTTTATGGACGGAGTCACCTAGTGCAG,14400 fluorescence intensity (a.u.)
2,TGAAAATTTCCCTTCTAATCTCAATCCCGTGGAGATATGTCGGAGTCACCTAGTGCAG,3380 fluorescence intensity (a.u.)
3,CCCATGATGATTTTATCAATCTCAAGATATACCTGCCCAGCGGAGTCACCTAGTGCAG,30400 fluorescence intensity (a.u.)
4,TTGACTGATTTCGTTTGTTTCGAGATATAAGCCAATTCAACGGAGTCACCTAGTGCAG,15300 fluorescence intensity (a.u.)
5,GAAAATTTTCCAATTCACTGTTGCAATATAACTGTAATAACGGAGTCACCTAGTGCAG,5680 fluorescence intensity (a.u.)
6,GTATAATTATTAATCCTATCCAACAAAAGTTCTATAAAATCGGAGTCACCTAGTGCAG,11000 fluorescence intensity (a.u.)
7,TCACCTTAATTAAAACATATAAATGTTCACCCGGTACAACCGGAGTCACCTAGTGCAG,8140 fluorescence intensity (a.u.)
8,TTTTGATTTGAGTAGGACCGCGTTATGAGAGCGGGGTGAGCGGAGTCACCTAGTGCAG,25200 fluorescence intensity (a.u.)
9,TTGATTTCTAAAATTTAGATTTTGGTTTGACAGATAAGCACGGAGTCACCTAGTGCAG,21800 fluorescence intensity (a.u.)
10,ATATAAATTATGTTATCAGCAGAACAATCACAGTACAAATCGGAGTCACCTAGTGCAG,6210 fluorescence intensity (a.u.)
11,CTACTCTCCTCTCCGAGATAGTACTATATATTTGCACTTCCGGAGTCACCTAGTGCAG,5420 fluorescence intensity (a.u.)
12,CCGCCACTAATGATGCACATTTATTCTTTACATAAATAAACGGAGTCACCTAGTGCAG,3180 fluorescence intensity (a.u.)
13,AAATGTGATTTTGTAATTTCCCCTTTGAATTTTCATCAAACGGAGTCACCTAGTGCAG,8970 fluorescence intensity (a.u.)
14,TATGTAAATTACTTTTAGCCTTTACTGAATTTACTTTTATCGGAGTCACCTAGTGCAG,5980 fluorescence intensity (a.u.)
15,ATATGTAAATTAATTTTATAGCATTTATGAAAGTAAATCTCGGAGTCACCTAGTGCAG,18500 fluorescence intensity (a.u.)
16,TCATGACTGGAGGGAGTATACTTGCGACAGTTTAGCAATACGGAGTCACCTAGTGCAG,3860 fluorescence intensity (a.u.)
17,TTAATGACTATTTAGTTGACATGTAAGAAACAGGGGATTTCGGAGTCACCTAGTGCAG,3450 fluorescence intensity (a.u.)
18,CGTAAAATTTGCGTTTTGTGAAAGTGTGTTCTTGCATAATCGGAGTCACCTAGTGCAG,3610 fluorescence intensity (a.u.)
19,TTAGATTATTGAGTCAGATTACTATAAGCTAGATTATTATCGGAGTCACCTAGTGCAG,12500 fluorescence intensity (a.u.)
20,ATGATAAGTAAAATTACTTATCCTTGGTCTGTGTGCCAAGCGGAGTCACCTAGTGCAG,3250 fluorescence intensity (a.u.)
21,TAATATCATTAGCACATGATTAATTACAAAATAGATTTATCGGAGTCACCTAGTGCAG,10000 fluorescence intensity (a.u.)
22,ATACCAAACAATCTGTCAATCTACCTTCCACCTAATTTCGCGGAGTCACCTAGTGCAG,7840 fluorescence intensity (a.u.)
23,ATCATAATCATCAGTCATTCAGCCTAAATGTTCAGGAATGCGGAGTCACCTAGTGCAG,18500 fluorescence intensity (a.u.)
24,GTCTCTGTCTCTCGCTCTGATTGAAGTGTTCTGCTGCCATCGGAGTCACCTAGTGCAG,20400 fluorescence intensity (a.u.)
25,TGAACTGTTAATGTTATTAATAATTTATGAGATACAGAGTCGGAGTCACCTAGTGCAG,4170 fluorescence intensity (a.u.)
26,TATGAGTTACTACAAATAATTAGCGGTTTCAATAACAAAGCGGAGTCACCTAGTGCAG,5100 fluorescence intensity (a.u.)
27,GCGTAGTGATTCATGACAAATTAGTGGTCTAAAACTGAACCGGAGTCACCTAGTGCAG,5820 fluorescence intensity (a.u.)

row,Sequence,binding signal
1,CATCATATCAGTATTTGATTGATCCTTTCAAGCTTCCTCGCGGAGTCACCTAGTGCAG,32100 fluorescence intensity (a.u.)
2,ATTCATTGATTAATTACTCGGTCACTGCAATCCAGGAGAGCGGAGTCACCTAGTGCAG,50300 fluorescence intensity (a.u.)
3,GTAACATGATGGCATTTGAGTAATTAACTAGTAAAACATACGGAGTCACCTAGTGCAG,3540 fluorescence intensity (a.u.)
4,GCAAAATAATAGGCTAATTTTAGTTAGTAGAGATGCACTGCGGAGTCACCTAGTGCAG,9500 fluorescence intensity (a.u.)
5,TCTTGAAATTTTGACAGGAACACAAAGGGCAGAGCATAGCCGGAGTCACCTAGTGCAG,3430 fluorescence intensity (a.u.)
6,AGAAATTGAATTGCTTGCTACAGAGAAGCTAGAAGAGTTTCGGAGTCACCTAGTGCAG,7510 fluorescence intensity (a.u.)
7,TATAATTTTAAACGGTGGGATTATATAAACATTGTGCAAGCGGAGTCACCTAGTGCAG,14600 fluorescence intensity (a.u.)
8,AAATTGACCTCACAATTAACACACATAAACACTATCTGCTCGGAGTCACCTAGTGCAG,3640 fluorescence intensity (a.u.)
9,GACCATGCAGCAATCAACCCCAATCAAACACATGCTTTACCGGAGTCACCTAGTGCAG,15500 fluorescence intensity (a.u.)
10,TCAAGACAGGTAATCACTTGATCTGTCTTTGTTTGAAATCCGGAGTCACCTAGTGCAG,13600 fluorescence intensity (a.u.)
11,AAAATTATTGAATTGTTGGGATCTGAGGGGATCCGCCGGACGGAGTCACCTAGTGCAG,5330 fluorescence intensity (a.u.)
12,CCCTTTGACAGATTAGGTGTGAGCGTGTGTGTGGACAGTACGGAGTCACCTAGTGCAG,43200 fluorescence intensity (a.u.)
13,GTACAGATAATAAATTAATGTAGAGCCTTCTGTAGCATCACGGAGTCACCTAGTGCAG,7660 fluorescence intensity (a.u.)
14,TTAAACTGACTGACCTCCAGTTGGTTTTGTTTAATGCACACGGAGTCACCTAGTGCAG,19500 fluorescence intensity (a.u.)
15,TTTAGACAACCTAATTAATTATCTAGGGTGCCAATGGAGACGGAGTCACCTAGTGCAG,25300 fluorescence intensity (a.u.)
16,CTTAAATTACATACTAATTTCTTTTCACAGAGATGCAATCCGGAGTCACCTAGTGCAG,24400 fluorescence intensity (a.u.)
17,AGTTCTATTTTAATTGACGTTTTGGATAATGACAAATCTTCGGAGTCACCTAGTGCAG,6950 fluorescence intensity (a.u.)
18,TGACCCAAGCAATTAGCAGCTAATAGCTGATATGTATAGTCGGAGTCACCTAGTGCAG,3900 fluorescence intensity (a.u.)
19,GAAAATATTGATTATGATGATAATCTTATCAAACACCAAACGGAGTCACCTAGTGCAG,35400 fluorescence intensity (a.u.)
20,AAAATTAACATTCATAGATGAGAAATGGCCATAGGCCTCACGGAGTCACCTAGTGCAG,4830 fluorescence intensity (a.u.)
21,CCAAATCCAATAAATTTGCAATGCATTCTTCTTGCAGTTCCGGAGTCACCTAGTGCAG,3740 fluorescence intensity (a.u.)
22,AACAAATCATGATCCTTGAGTAGCCACATTATTTTGCTGACGGAGTCACCTAGTGCAG,4940 fluorescence intensity (a.u.)
23,GCCAATAAAATAATTGCTTACTATACTATTAATATATGGTCGGAGTCACCTAGTGCAG,3780 fluorescence intensity (a.u.)
24,ATAATTAATTCCCTCCTAAACCCTAGCATTAATTTGACACCGGAGTCACCTAGTGCAG,18600 fluorescence intensity (a.u.)
25,CAGATTTTGATAGGTTTGAACTATCTACACCAGCGGAACGCGGAGTCACCTAGTGCAG,8340 fluorescence intensity (a.u.)
26,CCCTGTGATATGTCTATTATATAAGATATCCTTTTAAAAGCGGAGTCACCTAGTGCAG,3670 fluorescence intensity (a.u.)
27,GTTTAATTCTGTCTGTATACTATACCATATCTTACCAGACCGGAGTCACCTAGTGCAG,5010 fluorescence intensity (a.u.)
